# Reference: PubChem BioAssay AID463173 (ICCB-Longwood Screening Facility, Harvard Medical School, 2010)
# Screen size: about 52,000 compounds; about 1,700 (3.3%) were called active. Rule as the data show it: active = survival mostly below about 52% (no sharp cut-off); inactive = mostly above about 56%. The list shows a part of the results.
# System: Wild type
# Assay: growth inhibition of S. aureus wild type versus tarO mutant, primary screen, teichoic acid synthesis inhibitors, RN4220, OD600 (AID 463173)
# Conditions: S. aureus RN4220 wild type/DeltatarO growth, OD600, 18 h, active compounds read low, screened at 18.75 µg/mL (by protocol)
row,Structure (SMILES),survival
1,Fc1ccccc1C(NCCc1ccc(Cl)cc1)c1nnc(-c2ccccc2)o1 (configuration not stated),active: -1%
2,CCCC12CN3CC(CCC)(CN(C1)C3c1ccc(OCc3ccccc3)cc1)C2=O (configuration not stated),inactive: 117%
3,Cc1cccc(C)c1NC(=O)CCSc1nc(-c2ccc3c(c2)OCO3)cc(C(F)(F)F)n1,inactive: 73%
4,O=C(CSc1ncc2c(n1)-c1ccccc1N(Cc1ccc(Cl)cc1)S2(=O)=O)c1ccc(Cl)cc1,inactive: 79%
5,O=C(Cn1nc(-c2ccccc2)ccc1=O)NCC1COCCO1 (configuration not stated),inactive: 113%
6,COc1ccccc1NC(=O)CN(C)S(=O)(=O)c1cccc2cccnc12,inactive: 117%
7,Cc1ccc(Nc2ccc(N3CCN(C(=O)c4cccc([N+](=O)[O-])c4)CC3)nn2)cc1,inactive: 87%
8,O=C(COc1ccc(F)cc1)Nc1ccc(OCc2cc(=O)n3ccsc3n2)cc1,inactive: 86%
9,Cc1cccc(NC(=O)c2cccc(N3CCCS3(=O)=O)c2)c1,inactive: 83%
10,COc1ccc(NS(=O)(=O)c2cc(-c3onc(C)c3C)ccc2C)c(OC)c1,inactive: 80%
11,CCC1CN(C(=O)N2CCC(C(=O)NCCCc3ccccc3)CC2)c2cc(C)ccc2O1 (configuration not stated),inactive: 79%
12,Cc1ccc(CNC(=O)CN2Cc3ccccc3C2=O)cc1,inactive: 76%
13,Cc1ccccc1NC(=O)Cn1c(=O)n(CCC(=O)N2CCc3ccccc3C2)c(=O)c2ccccc21,inactive: 87%
14,COc1ccc(NC(=O)CCS(=O)(=O)c2cc3c(cc2C)NC(=O)CO3)cc1Cl,inactive: 116%
15,Cc1ccc(C2CC(=O)n3nc(-c4ccc(F)cc4)nc3S2)cc1 (configuration not stated),inactive: 76%
16,CCOC(=O)c1ccccc1NC(=O)N(Cc1ccc(CC)cc1)Cc1cn[nH]c1-c1ccc(OC)cc1,inactive: 81%
17,Cc1ccc(Cl)cc1NC(=O)c1sc2nc(C)c(C)c(C)c2c1N,inactive: 104%
18,CCCc1cnc2c(c1SCC(=O)Nc1ccc([N+](=O)[O-])cc1)c(=O)n(C)c(=O)n2C,inactive: 87%
19,COc1ccc(C2c3c(-c4ccccc4)n[nH]c3C(=O)N2c2ccc(C(=O)O)cc2)c(OC)c1 (configuration not stated),inactive: 82%
20,Cc1ccc(NC(=O)Cn2c(=O)n(CCC(=O)N3CCc4ccccc4C3)c(=O)c3ccccc32)c(C)c1,inactive: 79%
21,COc1ccc(-n2nc(C(=O)NCCc3ccc(Cl)cc3)c3c4ccccc4n(C)c3c2=O)cc1,inactive: 83%
22,Cc1ccc(-c2cnc(C3CC3)o2)cc1S(=O)(=O)Nc1cccc(C#N)c1,inactive: 124%

row,Structure (SMILES),survival
1,COc1cc(NC(=O)Cn2c(-c3ccccc3)cc(C(C)=O)c2C)cc(OC)c1,inactive: 92%
2,CNc1nc(SCC(=O)OC)nc(N2CCOCC2)n1,inactive: 105%
3,Cc1ccc(-c2c(CN3CCN(c4cccc(C)c4C)CC3)csc2C)cc1,inactive: 64%
4,CN(Cc1ccccc1)C(=O)CSc1c2c(nc3ccc(Cl)cc13)CCCC2,active: 0%
5,O=C(c1cccnc1Nc1ccccc1F)N1CCCCC1,inactive: 109%
6,Cc1cccc(C)c1NC(=O)CSc1nc(-c2cccs2)cc(C(F)(F)F)n1,inactive: 83%
7,CC(C)NC(=O)CCSc1nc(-c2ccc3c(c2)OCO3)cc(C(F)(F)F)n1,inactive: 77%
8,CC(C)CCn1c(SCc2c(F)cccc2Cl)nc2ccsc2c1=O,inactive: 73%
9,Cc1cn2c(=O)cc(COc3ccc(C(C)(C)C)cc3)nc2s1,inactive: 65%
10,COc1ccc(CCN(Cc2nc3ccccc3c(=O)[nH]2)C(=O)c2ccco2)cc1,inactive: 81%
11,O=C(Nc1ccc(F)c(Cl)c1)C1CCCN(S(=O)(=O)c2cccc3nsnc23)C1 (configuration not stated),inactive: 73%
12,CCOc1ccccc1N(CC)C(=O)c1ccc2c(=O)n3c(nc2c1)CCCCC3,inactive: 123%
13,Nc1nonc1-c1nc2ccccc2n1CC(=O)Nc1ccccc1C(=O)O,inactive: 66%
14,CC1=C(C(=O)N2CCCCC2)C(c2ccc(N(C)C)cc2)C2=C(CCCC2=O)N1 (configuration not stated),inactive: 110%
15,CN(C)S(=O)(=O)N1CCC(N2CCN(Cc3ccc(F)cc3)C(=O)C2=O)CC1,inactive: 132%
16,CCOc1ccc(CCNC(=O)CSCc2nc(-c3cccc(C)c3)oc2C)cc1OCC,inactive: 80%
17,N#Cc1ccccc1Cn1c(SCC(=O)NCc2ccccc2)nc2ccccc21,inactive: 75%
18,CCc1cccc2c(-c3ccccc3)nc(SCC(=O)Nc3ccc(OC)cc3)nc12,inactive: 98%
19,CCOc1ccc2nc(NC(=O)c3nc(SC(C)C)ncc3Cl)sc2c1,inactive: 71%
20,CC1CCN(C(=O)Cn2c(=O)n(-c3ccc(Cl)cc3)c(=O)c3c4c(sc32)CCC4)CC1,inactive: 79%
21,COCCNC(=O)C1CC(=O)N(c2ccc(C)cc2)C1 (configuration not stated),inactive: 121%
22,O=C(Cn1c(=O)c2cccn2c2ccc(F)cc21)NCc1cccc(Cl)c1,inactive: 87%

row,Structure (SMILES),survival
1,CCCNS(=O)(=O)c1ccc(OCC(=O)N2CCCCC2)cc1,inactive: 123%
2,CN(C)S(=O)(=O)c1ccc(C(=O)N(Cc2cccnc2)c2nc3c(F)cc(F)cc3s2)cc1,inactive: 68%
3,CC(C)N(Cc1ccccc1)S(=O)(=O)c1ccc(N2CCCCS2(=O)=O)cc1,inactive: 77%
4,Cc1cc2nn(-c3ccccc3)nc2cc1NC(=O)Cc1ccc(Cl)cc1,inactive: 92%
5,CN(C)S(=O)(=O)N1CCN(Cc2ccccc2)CC1,inactive: 102%
6,CC(=O)N1CCc2c(sc3c2c(=O)n(CCc2ccccc2)c(=O)n3Cc2ccc(F)cc2)C1,inactive: 89%
7,COc1ccc(-n2ccn(CC(=O)Nc3ccccc3C(F)(F)F)c(=O)c2=O)cc1OC,inactive: 87%
8,CCc1ccc(-n2c(CCC(=O)O)ccc2-c2cccs2)cc1,inactive: 64%
9,Cc1ccccc1NC(=O)Cn1c(=O)n(CCCCCC(=O)NCc2ccc3c(c2)OCO3)c(=O)c2sccc21,inactive: 101%
10,Cc1c(Cl)cccc1NC(=O)CSc1nc(=O)n(CCN2CCOCC2)c2c1CCC2,inactive: 71%
11,CCOc1ccc(NC(=O)c2sc3nc(-c4ccc(OC)cc4)cn3c2C)cc1,inactive: 94%
12,CC(C)(C)NC(=O)c1cccc(C(=O)NC(C)(C)C)c1,inactive: 107%
13,COc1ccc(-c2nsc(NC(=O)c3ccccc3Br)n2)cc1,inactive: 47%
14,N#CC(C#N)=Cc1cn(CC(=O)Nc2ccccc2)c2ccccc12,inactive: 120%
15,Cc1ccccc1C1C(C#N)=C(N)NC(S)=C1C#N (configuration not stated),inactive: 93%
16,COc1cc(NC(=O)C2CCCN(S(=O)(=O)c3cn(C)cn3)C2)cc(OC)c1 (configuration not stated),inactive: 69%
17,CCOC(=O)c1cc2c(=O)n3ccccc3nc2n(CC(C)C)c1=NC(=O)C(C)Oc1ccccc1 (configuration not stated),inactive: 141%
18,CC(=O)Nc1ccc(NCc2nnc3n2CCCCC3)cc1,inactive: 53%
19,CCN1CCCC1CNCC(=O)NC1(C)C2CCC(C2)C1(C)C (configuration not stated),inactive: 113%
20,Cc1ccc(Nc2ccc(N3CCN(C(=O)c4ccc([N+](=O)[O-])cc4Cl)CC3)nn2)cc1,inactive: 129%
21,CCc1ccccc1NC(=O)CCc1c(C)nc2cc(-c3ccccc3)nn2c1C,inactive: 71%
22,CCOc1ccc(NC(=O)CCS(=O)(=O)c2cc3c4c(c2)CCN4C(=O)CC3)cc1,inactive: 71%

row,Structure (SMILES),survival
1,Cc1nnc(N2CCN(C(=O)Nc3cc(F)ccc3F)CC2)c2nn(-c3ccc(Cl)cc3)c(C)c12,inactive: 75%
2,CCOc1ccc2[nH]c(=O)c(CN(Cc3ccccc3OC)C(=O)N3CCCC3)cc2c1,inactive: 103%
3,O=C(Nc1ccccc1)N1CCCC(c2nc(-c3cccs3)no2)C1 (configuration not stated),inactive: 106%
4,O=C(NC1CC(=O)N(c2ccc(Cl)cc2)C1)C(=O)c1c[nH]c2ccccc12 (configuration not stated),inactive: 73%
5,CCC(C)(C)n1nnnc1CN(Cc1ccc(Cl)cc1)CC1CCCO1 (configuration not stated),inactive: 136%
6,CCN(CC)CCC(=O)N1c2ccccc2CCc2ccc(NC(=O)OC(C)C)cc21,inactive: 105%
7,Cc1cccc(NC(=O)NCCn2c(=O)oc3ccc(C)cc32)c1,inactive: 88%
8,COc1cccc(NC(=O)c2sc3nc(N4CCOCC4)c4c(c3c2N)CC(C)(C)OC4)c1,inactive: 77%
9,Cc1ccc(CNC(=O)CCCn2c(=O)c3ccccc3n(CC(=O)C(C)(C)C)c2=O)cc1,inactive: 68%
10,CCOC(=O)Cn1c(=O)n(CC2CCCO2)c2nc(-c3ccc(OC)cc3OC)nc(C(N)=O)c21 (configuration not stated),inactive: 64%
11,COc1cc(NC(=O)C(CC(C)C)NS(=O)(=O)c2ccc3c(c2)CCCC(=O)N3)cc(OC)c1 (configuration not stated),inactive: 60%
12,Cc1oc2c(c1C(=O)NCc1cccc(Br)c1)C1=NCCN1C=N2,inactive: 89%
13,COc1ccccc1N1CCN(C(=O)C2CCN(S(=O)(=O)c3cnc[nH]3)CC2)CC1,inactive: 86%
14,COc1ccc(CNC(=O)c2cc3c(-c4ccccc4F)nn(C)c3s2)c(OC)c1,inactive: 126%
15,CCOc1ccc(NC(=O)Cn2c(=O)n(-c3ccc(C)cc3)c(=O)c3cc(OC)c(OC)cc32)cc1,inactive: 73%
16,COC(=O)C1=C(CN(C)CCc2ccc(OC)c(OC)c2)NC(=O)NC1c1cccc(OC)c1 (configuration not stated),inactive: 91%
17,COc1ccc(CNC(=O)CN(c2ccc(C)cc2)S(=O)(=O)c2c(C)n[nH]c2C)cc1,inactive: 76%
18,O=C(Nc1ccc(Br)cc1)c1ccc2c3c(onc13)-c1ccccc1C2=O,inactive: 122%
19,COc1ccc2oc(=O)c(-c3csc(/C(C#N)=C/c4ccc(F)cc4)n3)cc2c1,inactive: 96%
20,COc1cccc(CNC(=O)CN2C(=O)N(c3cc(C)ccc3C)S(=O)(=O)c3ccccc32)c1OC,inactive: 69%
21,COc1cc(C)c(Cl)cc1S(=O)(=O)NCCc1c(C)[nH]c2ccccc12,inactive: 73%
